{"source": "PubChem BioAssay AID1508642", "about": "(National Center for Advancing Translational Sciences (NCATS), 2021)", "note": "The whole screen tested about 43,000 compounds, of which about 200 (0.47%) were called active. Inconclusive results, whose numbers are uncertain, are shown with a selection of clear calls. Calls follow the shape of the dose curve; as a rule, active = well fitted cell-killing curve with a large enough effect; inconclusive = small, poorly fitted or top-dose-only effect, or effect the other way; inactive = flat fitted curve, though single readings scatter. Where the call is inconclusive, the potency comes from a doubtful curve fit. Potency is read from the fitted curve at half-maximal effect; tags tell the direction and shape of the fitted curve.", "data": [{"assay": "Cell viability qHTS assay in S16 Pmp22-F2sN cells; also: nearly all actives have a fitted effect of over 65% in size", "details": "S16 Pmp22-F2sN Schwann cells (luciferase reporters placed in the Pmp22 gene) viability, CellTiter-Glo, 24 h; series mostly up to 57.5 µM", "summary_of_the_method": "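Seed 500-1,000 S16 Pmp22-F2sN cells per well in phenol-red-free DMEM with 10% heat-inactivated FBS; pin-add 23 nL compound; incubate 24 h at 37C; add CellTiter-Glo, wait 15 min protected from light; read luminescence.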", "values": [{"smiles": "COc1cc(C2C(C(=O)Nc3ccccc3C)=C(C)Nc3nc(SCc4cc(C)ccc4C)nn32)ccc1O", "note": "(configuration not stated)", "Potency": "inconclusive: 25.1 µM [cytotoxic, single point]"}, {"smiles": "Cc1cccn2c(=O)c(C(=O)N3CCN(c4ccc(Cl)cc4)CC3)cnc12", "Potency": "inconclusive: 22.4 µM [cytotoxic, partial curve, poor fit]"}, {"smiles": "CCOC(=O)c1cc2c(=O)n3ccccc3nc2n(Cc2ccco2)c1=NC(=O)c1cccc(Br)c1", "Potency": "inconclusive: 14.1 µM [cytotoxic, partial curve, poor fit]"}, {"smiles": "Cc1cc(S(=O)(=O)Nc2ccc3oc4c(c3c2)CCCC4)ccc1Cl", "Potency": "inactive"}, {"smiles": "Cc1c(Cl)cccc1NC(=O)c1oc2ccc(S(=O)(=O)N3CCC4(CC3)OCCO4)cc2c1C", "Potency": "inconclusive: 31.6 µM [cytotoxic, single point]"}, {"smiles": "CCC(=O)Nc1ccc(CC)cc1-c1nc2ccccc2n(CC(=O)c2ccc(OC)cc2)c1=O", "Potency": "inactive"}, {"smiles": "COc1ccc(CN2CCc3nc(N4CCN(c5ccc(F)cc5)CC4)ncc3C2)c(OC)c1OC", "Potency": "active: 15.8 µM"}, {"smiles": "CCC(=O)N1CCc2cc(Br)cc(S(=O)(=O)N3CCC(C(=O)Nc4cccc(C)c4)CC3)c21", "Potency": "inactive"}, {"smiles": "O=C(NCc1ccccc1)c1ccc(CSc2nc3cccnc3n2Cc2ccccc2)cc1", "Potency": "inconclusive: 39.8 µM [cytotoxic, single point]"}, {"smiles": "CC(=O)N1c2ccc(S(=O)(=O)NCC3CCC(C(=O)Nc4cccc(C)c4)CC3)cc2CC1C", "note": "(configuration not stated)", "Potency": "inconclusive: 15.8 µM [cytotoxic, partial curve, poor fit]"}, {"smiles": "COc1cccc2cc(-c3nc4ccc(C)cc4[nH]3)c(=O)oc12", "Potency": "inactive"}, {"smiles": "CCc1ccc2nc(N3CCC(C(=O)NCCC(C)C)CC3)sc2c1", "Potency": "inactive"}, {"smiles": "CCN(Cc1ccccc1)S(=O)(=O)c1ccc(N2CCCCS2(=O)=O)cc1", "Potency": "inconclusive: 31.6 µM [cytotoxic, single point]"}, {"smiles": "COc1ccc(C(=O)Nc2nc(-c3nnn(-c4cc(OC)ccc4OC)c3C)ns2)cc1", "Potency": "inconclusive: 3.55 µM [rising, full curve, poor fit]"}, {"smiles": "CCc1ccc(NS(=O)(=O)c2ccc3[nH]cc(C(=O)NC4CCCC4)c(=O)c3c2)cc1", "Potency": "inconclusive: 39.8 µM [cytotoxic, single point]"}, {"smiles": "CC(C)CCNC(=O)CN1C(=O)COc2ccc(S(=O)(=O)N3CCOCC3)cc21", "Potency": "inconclusive: 28.2 µM [rising, single point]"}, {"smiles": "CC(C)c1ccc(NC(=O)C2CCCN(S(=O)(=O)c3ccc(Br)s3)C2)cc1", "note": "(configuration not stated)", "Potency": "inconclusive: 39.8 µM [cytotoxic, single point]"}, {"smiles": "COc1cc(OC)c(OC)cc1CN1CCc2nc(N3CCN(c4ncccn4)CC3)ncc2C1", "Potency": "inactive"}, {"smiles": "CCc1ccc(NC(=O)c2cc3ccccn3n2)cc1", "Potency": "inactive"}, {"smiles": "O=C(CSc1nc(=O)[nH]c2c1CCCC2)Nc1cc(C(F)(F)F)ccc1Cl", "Potency": "inconclusive: 22.4 µM [cytotoxic, single point]"}, {"smiles": "CCN(c1ccccc1)c1nnc(NC(=O)Nc2cccc(C(F)(F)F)c2)s1", "Potency": "inactive"}, {"smiles": "COCc1cc(C)nc2sc3c(c12)NC(c1ccc(NC(C)=O)cc1)N(c1ccc(C)cc1)C3=O", "note": "(configuration not stated)", "Potency": "inconclusive: 31.6 µM [cytotoxic, single point]"}, {"smiles": "CCOc1ccc(C(=O)Nc2ccc(S(=O)(=O)N(Cc3ccccc3)c3ccccc3)cc2)cc1", "Potency": "inconclusive: 7.94 µM [cytotoxic, full curve, poor fit]"}, {"smiles": "O=C(COc1ccccc1)Nc1ccc(OCc2cc(=O)n3ccsc3n2)cc1", "Potency": "inactive"}, {"smiles": "Cc1cc(N2CCCCC2)nc2ccc(NC(=O)c3ccc(F)cc3)cc12", "Potency": "inactive"}, {"smiles": "CCOC(=O)c1c(NC(=O)CSc2cn(CCNC(=O)c3ccc(OCC)cc3)c3ccccc23)sc2c1CCCC2", "Potency": "inactive"}, {"smiles": "O=C(CSc1nc2cc3ccccc3cc2[nH]1)Nc1cccc(C(F)(F)F)c1", "Potency": "inconclusive: 39.8 µM [cytotoxic, single point]"}, {"smiles": "Cc1cc(F)ccc1Nc1nc2ccccc2n2nnnc12", "Potency": "inactive"}, {"smiles": "CCCCN(C)CCNC(=O)C1CCN(c2nc3ccc(CC)cc3s2)CC1", "Potency": "inconclusive: 39.8 µM [cytotoxic, single point]"}, {"smiles": "COc1ccc(Cl)cc1NC(=O)C1CCN(c2ncnc3c2nc2n3CCCCC2)CC1", "Potency": "inactive"}, {"smiles": "COc1ccc(-c2nn(C)c3sc(C(=O)N4CCN(c5cc(Cl)ccc5C)CC4)cc23)cc1OC", "Potency": "inconclusive: 31.6 µM [rising, partial curve, poor fit]"}, {"smiles": "Cc1nc2cc(-c3cccc(F)c3)nn2c(C)c1CCC(=O)NC1CCCCC1", "Potency": "inactive"}, {"smiles": "Cc1ccc(Cn2c(=O)n(Cc3ccc(Cl)cc3)c(=O)c3cccnc32)cc1", "Potency": "inconclusive: 3.55 µM [rising, single point]"}, {"smiles": "Cc1ccc(CNC(=O)c2cc3sccc3n2Cc2ccc(F)cc2)cc1", "Potency": "inactive"}, {"smiles": "COc1ccc(S(=O)(=O)NCCc2sc3nc(-c4ccc(C)cc4)nn3c2C)cc1C", "Potency": "inconclusive: 39.8 µM [cytotoxic, single point]"}, {"smiles": "CCOc1ccccc1CNC(=O)CCC(=O)N1CCSc2ccccc21", "Potency": "inconclusive: 14.1 µM [cytotoxic, partial curve]"}, {"smiles": "COC(=O)CC1Oc2ccc(F)cc2-n2cc(-c3ccc(C)cc3)nc21", "note": "(configuration not stated)", "Potency": "inconclusive: 28.2 µM [rising, partial curve, poor fit]"}, {"smiles": "CCOc1ccc(-n2ccnc2SCC(=O)Nc2cccc3ccccc23)cc1", "Potency": "inconclusive: 28.2 µM [cytotoxic, partial curve, poor fit]"}, {"smiles": "COc1ccc(N2C(=O)CSC23C(=O)N(Cc2cccc(C(F)(F)F)c2)c2ccccc23)cc1", "note": "(configuration not stated)", "Potency": "inactive"}, {"smiles": "CN(C)c1ccc(CNC(=O)C2CCCN(S(=O)(=O)c3ccc4c(c3)CCCC(=O)N4)C2)cc1", "note": "(configuration not stated)", "Potency": "inconclusive: 20 µM [cytotoxic, single point]"}, {"smiles": "CCOc1ccccc1C(=O)Nc1ccc(-n2nncc2-c2ccccc2)cc1", "Potency": "inconclusive: 35.5 µM [cytotoxic, single point]"}, {"smiles": "COc1ccc(Nc2nnc(-c3ccc(C)c(S(=O)(=O)NCc4nc5ccccc5[nH]4)c3)c3ccccc23)cc1", "Potency": "inconclusive: 11.2 µM [cytotoxic, partial curve]"}, {"smiles": "Cc1ccc(-c2nc(NC(=O)CSc3ccc4ccccc4n3)ns2)cc1", "Potency": "inconclusive: 1 µM [rising, partial curve, poor fit]"}, {"smiles": "O=C1CC(c2nc3ccccc3n2Cc2c(F)cccc2Cl)CN1c1cccc(C(F)(F)F)c1", "note": "(configuration not stated)", "Potency": "inconclusive: 22.4 µM [cytotoxic, partial curve, poor fit]"}, {"smiles": "Cc1c(Cl)cccc1Nc1sc(C(=O)c2ccccc2)c(N)c1S(=O)(=O)c1ccccc1", "Potency": "inactive"}, {"smiles": "CCOC(=O)c1ccc2c(c1)N(Cc1cccc([N+](=O)[O-])c1)C(=O)c1ccccc1S2", "Potency": "inconclusive: 3.98 µM [rising, full curve, poor fit]"}, {"smiles": "O=C(Cn1c(=O)nc(-c2ccccc2)c2cc(Cl)ccc21)NCc1ccccc1", "Potency": "inconclusive: 39.8 µM [cytotoxic, single point]"}, {"smiles": "CCC(CC)c1nn2c(=O)cc(COc3ccc(NC(=O)c4ccc(Cl)cc4)cc3)nc2s1", "Potency": "inconclusive: 3.55 µM [rising, partial curve, poor fit]"}, {"smiles": "CC(Sc1oc(-c2ccco2)nc1S(=O)(=O)c1ccc(Br)cc1)c1ccccc1", "note": "(configuration not stated)", "Potency": "inconclusive: 31.6 µM [cytotoxic, single point]"}, {"smiles": "COc1ccc(N2CCN(CCCNC(=O)c3cnn(-c4ccc(F)cc4)c3-n3cccc3)CC2)cc1", "Potency": "inconclusive: 25.1 µM [cytotoxic, single point]"}, {"smiles": "CCOc1ccc(C2CC(=O)c3c([nH]c(C(=O)OCc4ccccc4)c3C)C2)cc1", "note": "(configuration not stated)", "Potency": "inconclusive: 28.2 µM [cytotoxic, single point]"}, {"smiles": "CCOC(=O)c1c(NC(=O)c2ccc(S(=O)(=O)N(CCOC)CCOC)cc2)sc2c1CC(C)(C)NC2(C)C", "Potency": "inconclusive: 39.8 µM [cytotoxic, single point]"}, {"smiles": "COc1ccc(-c2nc(Cn3c(SCc4ccc(C)cc4)nc4cccnc43)c(C)o2)cc1OC", "Potency": "inconclusive: 10 µM [cytotoxic, partial curve]"}, {"smiles": "COc1cccc(-c2cc(C(=O)Nc3cc(OC)c(OC)c(OC)c3)on2)c1", "Potency": "inconclusive: 28.2 µM [cytotoxic, single point]"}, {"smiles": "CCN1CCN(c2ccc(NS(=O)(=O)c3c(C)nc4sccn4c3=O)cc2Cl)CC1", "Potency": "inactive"}, {"smiles": "CCCS(=O)(=O)c1ncc(Cl)c(C(=O)Nc2scc(-c3ccccc3)c2C(=O)OCC)n1", "Potency": "inconclusive: 39.8 µM [cytotoxic, single point]"}, {"smiles": "Cc1ccc(Nc2c(-c3ccncc3)nc3ccc(C)cn23)cc1", "Potency": "inconclusive: 39.8 µM [cytotoxic, partial curve, poor fit]"}, {"smiles": "CCOc1ccc(OCC)c(S(=O)(=O)N2CCN(c3cccc(C)c3C)CC2)c1", "Potency": "inconclusive: 39.8 µM [cytotoxic, partial curve, poor fit]"}, {"smiles": "Cc1ccc(NC(=O)N(Cc2cn(C)c3ccccc23)C2CCCCC2)cc1C", "Potency": "inconclusive: 39.8 µM [cytotoxic, single point]"}, {"smiles": "CCC1CCCCN1CCCNC(=O)c1cc2c(Cl)nc3ccccc3c2s1", "note": "(configuration not stated)", "Potency": "inconclusive: 39.8 µM [cytotoxic, single point]"}, {"smiles": "COc1cc(OC)cc(C(=O)Nc2ccc3nc(N4CCCCC4)cc(C)c3c2)c1", "Potency": "inconclusive: 39.8 µM [cytotoxic, single point]"}, {"smiles": "O=C(NCc1ccccc1Cl)C(=O)NCC(c1cccs1)S(=O)(=O)c1cccs1", "note": "(configuration not stated)", "Potency": "inconclusive: 39.8 µM [cytotoxic, single point]"}]}]}
